Hit rate of the full screen: of about 360,000 compounds, about 17,000 (4.7%) were called active. The inconclusive results got no clear call from the source; some entries with a clear call stand among them for comparison. Rule as the data show it: active = activity change below about -50%; inconclusive = mostly about -30% to -49%; inactive = weaker than that.
Experiment: qHTS for Inhibitors of Inflammasome Signaling: IL-1-beta AlphaLISA Primary Screen
Conditions: THP-1 LPS/ATP IL-1B secretion, 16 h; at 57.5 µM, active compounds read low
Summary of the method: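 Secreted IL-1B measured by AlphaLISA bead assay after 16 h compound exposure of THP-1 cells; compounds (final up to 57.5 uM) added 1 h before LPS (250 ng/mL) and ATP (1.25 mM) stimulation; lower signal means less secretion.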
% is scaled to controls: 0 for no effect and ±100 for the full control effect.

SMILES | activity change
Cc1c(C)n2c(SCC(=O)N3CC(C)OC(C)C3)nnc2[nH]c1=O (centres undefined) | inactive: 17.3%
COc1ccc(N2C(=O)C(Cl)=C(Nc3ccc(OC)cc3OC)C2=O)cc1 | inactive: -6.05%
CCn1cnc2cc(NCc3ccc(Cl)cc3)ccc21 | inconclusive: -43.2%
COc1ccc(Br)cc1C1Nc2ccccc2C(=O)N1NC(=O)c1ccncc1 (centres undefined) | inactive: 1.36%
Cc1cc2cc(CNC(=O)C3CCCC3)ccc2n1C | inconclusive: -31.4%
CC(=O)N(C(C)=O)c1nc(-c2ccccc2)cn1/N=C/c1ccccc1 | inconclusive: -31.2%
Cc1ccccc1C(=O)NCc1nnc(SCC(=O)N2c3ccccc3Sc3ccccc32)n1C | inconclusive: -32.2%
CCCCCCCCC1CC(C(=O)Nc2ccccc2)C(=O)O1 (centres undefined) | inconclusive: -33.5%
O=C(Nc1ccncc1)c1cccs1 | inconclusive: -39.6%
COc1ccc(OC(=O)c2cccc([N+](=O)[O-])c2)c(C(=O)/C=C/c2cccs2)c1 | active: -53.2%
N#Cc1c(NC(=O)c2ccccc2Cl)n(Cc2ccccc2)c2nc3ccccc3nc12 | active: -102%
CC(C)(CNC(=O)c1ccc(-c2ccccc2Cl)o1)N1CCOCC1 | active: -55.6%
Fc1ccc(C(c2nnnn2Cc2cccs2)N2CCN(C3CCCCC3)CC2)cc1 (centres undefined) | inconclusive: -45.6%
NC(=O)N/N=C(/CCCCCC/C(=N\NC(N)=O)c1ccccc1)c1ccccc1 | inconclusive: -50%
COc1ccc(OC)c(NC(=O)C2CCN(c3cc(-c4ccccc4)nc4ncnn34)CC2)c1 | inconclusive: -30.1%
COc1ccc(Nc2nnc(SCc3cn4c(C)cccc4n3)s2)cc1 | inconclusive: -40.3%
Cc1cc(Cl)cc(Cl)c1OCC(=O)NCc1ccco1 | inconclusive: -39.4%
Nc1ncnc(Nc2cccc(Cl)c2Cl)n1 | inconclusive: -38.8%
CCCCNc1c(-c2cccc(Sc3ccc(OC)cc3)c2)nc2ccccn12 | inconclusive: -49.6%
COc1cc(-c2cc(C(=O)Nc3ccc(O)cc3)c3ccccc3n2)cc(OC)c1OC | active: -51.8%
C=CCN=c1scc(-c2ccc(F)cc2)n1/N=C/c1ccccn1 | inconclusive: -48.4%
CCN(CC)CC(=O)Nc1ccc(/C(C)=N/NC2=NCCN2)cc1 | inconclusive: -32%
CCCC(=O)Nc1ccc2oc(-c3cccnc3)nc2c1 | inconclusive: -30.3%
O=C1NC2(CCCCCC2)C(=O)N1Cc1c(F)cccc1Cl | inactive: 10.1%
Cc1ccc(C(C)C)c(OCCCCN2CCNCC2)c1 | active: -58.5%
CNC[C@@H]1Oc2cc(Br)ccc2S(=O)(=O)N([C@H](C)CO)C[C@@H]1C | inconclusive: -31.9%
C#CCOCCOCCOCCNc1nc(N2CCN(C(=O)CCCCCCCCCCNC(=O)[C@H](CCCCN)n3cc(C[C@@H](C)CC)nn3)CC2)nc(N2CCN(C(=O)CCCCCCCCCCNC(=O)[C@@H]([C@H](C)O)n3cc(C)nn3)CC2)n1 | inconclusive: -45.7%

SMILES | activity change
Cc1ccc(C(=O)NCCN2C3=NC[C@H](C)N3C[C@H]2Cc2ccc(O)cc2)cc1Br | inactive: -19.8%
COC(=O)c1ccc2c(c1)C(NC(C)=O)CCc1cc(OC)c(OC)c(OC)c1-2 (centres undefined) | active: -72.6%
CCCCCC(=O)N1C[C@H](O)[C@@H](n2cc(COC(=O)c3ccccc3)nn2)C[C@@H]1c1ccc(C)cc1 | inactive: -14.9%
CC1=Nc2cccc3cccc(c23)N1C | inconclusive: -36.8%
CC(C)(C)c1cc(Cl)ccc1OCCn1ccnc1 | active: -52.6%
COc1cccc(C(=O)NC2CC3CCCC(C2)N3S(=O)(=O)c2ccccc2)c1 (centres undefined) | inactive: 0.979%
COc1ccc(C)cc1NC(=O)CN(Cc1nnc(-c2ccc(Cl)cc2)o1)C1CCCC1 | inconclusive: -35.4%
CC(C)(C)NC(=O)C(c1ccc(O)cc1)N(C(=O)Cn1nnc(-c2ccc(F)cc2)n1)c1ccccc1F (centres undefined) | inconclusive: -31.7%
Cc1nc(Cl)nc(N(C)c2ccccc2)c1[N+](=O)[O-] | active: -81.8%
O=C(OCC(=O)c1cccc2ccccc12)c1ccc(CO)cc1 | inactive: -25.9%
COC(=O)c1ccc2c(=O)n(Cc3ccc(C(=O)NCCCN4CCC(C)CC4)cc3)c(=S)[nH]c2c1 | active: -106%
COc1ccc(-c2cc3nc(C)cc(N4CCN(C(=O)c5ccoc5)CC4)n3n2)cc1 | inconclusive: -34.3%
CC1Cc2ccccc2N1C(=O)CSc1nncs1 (centres undefined) | inactive: -5%
CC(C)COc1ccc(CN=C(N)N=C(N)N)cc1Cl | inconclusive: -43.7%
O=C(/C=C/c1ccc(Cl)cc1Cl)Nc1cccc(S(=O)(=O)NC2=NCCC2)c1 | inconclusive: -34.2%
O=C(Nc1nc(-c2cccs2)cs1)c1ccc([N+](=O)[O-])o1 | active: -89.8%
Cc1cc2nc(-c3ccc(SCC(=O)N4CCOCC4)nc3)[nH]c2cc1C | inconclusive: -30.7%
Cc1ccc(NC(=O)c2ccc3c(c2)OCCO3)cc1C | active: -50.1%
CCCCNC(=O)CCCCn1c(=S)[nH]c2c([nH]c3ccc(OC)cc32)c1=O | inactive: 16.6%
Cc1ccc(O)c(C(=O)c2cnc3c(c2)CN(CCC(C)C)C(=O)N3)c1 | inactive: -14.8%
Cc1cc(C)nc(N2CCCC(C(=O)NC(C)C)C2)n1 (centres undefined) | inactive: -6.4%
CCOC(=O)C1CCCN(c2c(C(=O)c3ccccc3)cnc3ccc(OC)cc23)C1 (centres undefined) | inactive: 15.2%
Cc1ccc(CNc2cc(-c3nn4c(C)nnc4s3)ccc2C)s1 | inactive: 16.1%
COc1cccc(OC)c1C(=O)NC(=S)Nc1ccc2oc(=O)ccc2c1 | inconclusive: -38.2%
Cc1ccc(S(=O)(=O)NC2=C(N3CCN(c4ccccc4F)CC3)C(=O)c3ccccc3C2=O)cc1 | inconclusive: -47.1%
CNC(=S)N1N=C(c2ccc(C)cc2)CC1c1ccc(Br)cc1 (centres undefined) | inconclusive: -42.8%
CN(C)CC1CCC/C(=C\c2ccc(OC(=O)/C=C/c3ccc(Cl)c(Cl)c3)cc2)C1=O (centres undefined) | inconclusive: -31.4%
